Assay results: PubChem BioAssay AID504333 (National Center for Advancing Translational Sciences (NCATS), 2011)
About 16,000 (4.4%) of roughly 360,000 compounds were called active. The inconclusive results got no clear call from the source; some entries with a clear call stand among them for comparison. The call rests on the fitted dose curve; in most records, active means well fitted inhibition curve with a large enough effect; inconclusive means small, poorly fitted or top-dose-only effect; inactive means no such curve, though single readings can be large or run the other way. Where the call is inconclusive, the potency comes from a doubtful curve fit.
Further: nearly all actives have a fitted effect of over 60% in size.
Potency means the concentration at half of the fitted maximal effect; tags describe the fitted curve by direction and shape.

Each compound was assayed against Bromodomain adjacent to zinc finger domain protein 2B (Homo sapiens) (UniProt Q9UIF8) (assay: qHTS Assay for Inhibitors of BAZ2B). Conditions: AlphaScreen BAZ2B-H3K14Ac peptide displacement; series mostly up to 114 µM.
UniProt Q9UIF8, sequence (Q9UIF8 whole entry, looked up, the tested form may be a part): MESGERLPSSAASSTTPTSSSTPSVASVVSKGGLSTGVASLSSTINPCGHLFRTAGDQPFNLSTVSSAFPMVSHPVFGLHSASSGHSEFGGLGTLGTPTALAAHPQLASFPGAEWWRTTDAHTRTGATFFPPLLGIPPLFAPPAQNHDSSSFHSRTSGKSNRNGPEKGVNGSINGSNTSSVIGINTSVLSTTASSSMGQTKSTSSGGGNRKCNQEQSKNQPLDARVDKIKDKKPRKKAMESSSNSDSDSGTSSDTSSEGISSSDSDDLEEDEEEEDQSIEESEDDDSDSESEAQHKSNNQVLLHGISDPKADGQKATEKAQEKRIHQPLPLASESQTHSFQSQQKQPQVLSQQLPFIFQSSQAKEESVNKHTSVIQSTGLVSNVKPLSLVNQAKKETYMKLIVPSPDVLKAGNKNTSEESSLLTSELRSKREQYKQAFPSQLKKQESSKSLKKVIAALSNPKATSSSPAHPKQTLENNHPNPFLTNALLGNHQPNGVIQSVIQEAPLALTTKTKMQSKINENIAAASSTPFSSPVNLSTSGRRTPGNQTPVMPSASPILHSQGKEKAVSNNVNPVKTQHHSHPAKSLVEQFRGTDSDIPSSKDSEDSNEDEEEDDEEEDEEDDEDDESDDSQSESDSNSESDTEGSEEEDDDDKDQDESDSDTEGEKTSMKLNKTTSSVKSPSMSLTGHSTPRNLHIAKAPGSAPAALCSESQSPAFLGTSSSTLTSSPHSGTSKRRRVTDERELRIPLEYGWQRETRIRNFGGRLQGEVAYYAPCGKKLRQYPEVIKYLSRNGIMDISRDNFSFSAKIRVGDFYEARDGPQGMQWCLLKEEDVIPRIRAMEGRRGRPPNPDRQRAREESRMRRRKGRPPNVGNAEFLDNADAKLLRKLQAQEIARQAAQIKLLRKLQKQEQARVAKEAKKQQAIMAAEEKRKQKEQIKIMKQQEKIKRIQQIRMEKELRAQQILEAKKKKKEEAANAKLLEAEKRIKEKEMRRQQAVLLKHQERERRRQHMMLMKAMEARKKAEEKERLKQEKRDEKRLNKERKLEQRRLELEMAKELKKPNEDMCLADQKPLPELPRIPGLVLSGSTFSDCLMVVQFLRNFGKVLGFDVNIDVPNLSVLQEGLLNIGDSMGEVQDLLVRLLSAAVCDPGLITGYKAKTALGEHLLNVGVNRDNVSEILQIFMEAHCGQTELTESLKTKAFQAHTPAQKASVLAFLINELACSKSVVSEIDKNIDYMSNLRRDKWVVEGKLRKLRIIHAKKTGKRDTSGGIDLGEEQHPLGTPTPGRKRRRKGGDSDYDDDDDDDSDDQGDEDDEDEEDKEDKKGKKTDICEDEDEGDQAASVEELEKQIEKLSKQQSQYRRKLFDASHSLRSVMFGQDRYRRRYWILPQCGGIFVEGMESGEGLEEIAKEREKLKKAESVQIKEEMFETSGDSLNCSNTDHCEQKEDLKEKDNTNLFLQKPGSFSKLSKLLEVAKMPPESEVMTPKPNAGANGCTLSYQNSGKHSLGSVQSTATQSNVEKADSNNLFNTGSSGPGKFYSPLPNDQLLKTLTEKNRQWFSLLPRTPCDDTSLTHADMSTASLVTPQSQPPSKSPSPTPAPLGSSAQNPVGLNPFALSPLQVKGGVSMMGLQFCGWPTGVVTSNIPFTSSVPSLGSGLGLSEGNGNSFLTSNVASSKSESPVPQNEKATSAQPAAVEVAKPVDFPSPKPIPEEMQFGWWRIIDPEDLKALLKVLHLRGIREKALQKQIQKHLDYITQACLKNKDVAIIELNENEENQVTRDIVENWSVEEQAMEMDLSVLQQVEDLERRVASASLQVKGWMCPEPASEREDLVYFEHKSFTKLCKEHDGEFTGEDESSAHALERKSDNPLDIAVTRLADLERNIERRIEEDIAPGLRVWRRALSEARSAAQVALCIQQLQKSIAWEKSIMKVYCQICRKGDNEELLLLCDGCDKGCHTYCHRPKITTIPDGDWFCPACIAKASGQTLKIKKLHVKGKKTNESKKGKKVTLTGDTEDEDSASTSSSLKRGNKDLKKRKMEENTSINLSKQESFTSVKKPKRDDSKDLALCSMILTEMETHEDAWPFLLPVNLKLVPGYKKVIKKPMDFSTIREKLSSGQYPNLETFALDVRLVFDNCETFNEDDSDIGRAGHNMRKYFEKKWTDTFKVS
Procedure, shortened: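 BAZ2B 50 nM plus b-H3(5-23)K14Ac 50 nM, PBS pH 7.4/0.01% Tween-20, 30 min RT; compound added (max 110 uM), 30 min RT; streptavidin donor/Ni-chelate acceptor beads 10 ug/mL final, 20 min dark; AlphaScreen read.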
In the case of `CCC1CN(C(=O)N2CCC(C(=O)NCCCc3ccccc3)CC2)c2ccccc2O1` (stereo unspecified), the Potency is reported as inconclusive: 28.2 µM [inhibitor, partial curve].
`CN(C)c1ccc(CNC(=O)Cn2c(=O)oc3cc(S(=O)(=O)NCc4ccccc4)ccc32)cc1` was tested, and the Potency was inconclusive: 31.6 µM [inhibitor, single point].
In the case of `Cc1ccccc1Cn1c(=O)n(CC2CCC(C(=O)N3CCC(C)CC3)CC2)c(=O)c2sccc21` (stereo unspecified), the Potency is reported as inconclusive: 79.4 µM [inhibitor, single point].
`NC(=O)C1CCN(C(=S)c2cccs2)CC1` was tested, and the Potency was “inactive”.
`Cc1cc(C(=O)CSc2cccc[n+]2[O-])c(C)n1-c1ccccc1` was tested, and the Potency was inconclusive: 79.4 µM [inhibitor, single point].
With `COC(=O)CC1=NN(c2ccc(OC)cc2)C(=O)/C1=C\c1ccc(Cl)cc1` the Potency was active: 50.1 µM.
For `CCN(Cc1ccccc1)c1ccc(/C=N/NS(=O)(=O)c2ccc(C)c([N+](=O)[O-])c2)cc1`, the Potency was inconclusive: 39.8 µM [inhibitor, full curve].
In the case of `CCOC(=O)C1CCN(c2c([N+](=O)[O-])c(C(Cl)Cl)nn2-c2ccccc2)CC1`, the Potency is reported as inconclusive: 8.91 µM [inhibitor, full curve].
In the case of `OCCN(Cc1ccccc1)Cc1ccccc1F`, the Potency is reported as active: 25.1 µM.
For `Cc1ccc(OCCN2C(=O)C(=O)c3cc(C)ccc32)cc1`, the Potency was active: 35.5 µM.
For `O=C(NCc1ccncc1)C(=O)C1C(=O)Nc2ccccc21` (stereo unspecified), the Potency was inconclusive: 89.1 µM [inhibitor, single point].
For `COc1cc(C(=O)N2CCN(c3ccccn3)CC2)cc(OC)c1OC`, the Potency was “inactive”.
For `CC(C)CNC(=O)COC(=O)c1c2c(nc3ccccc13)CCC2`, the Potency was active: 56.2 µM.
`CCN(CC)Cc1c(O)c(Cl)cc2c(C)c(C)c(=O)oc12` was tested, and the Potency was inconclusive: 89.1 µM [inhibitor, single point].
`Cc1c(C)n(CCc2ccccc2)c2ncnc(NCCCN(C)C)c12` was tested, and the Potency was active: 44.7 µM.
For `Cc1ccc(N=Nc2[nH]c3ccccc3c2O)cc1`, the Potency was active: 56.2 µM.
With `COc1ccc(-c2[nH]ncc2/C=C(/C#N)C(=O)NC2CCCCC2)cc1` the Potency was inconclusive: 7.08 µM [inhibitor, single point].
With `COc1cc(/C=C2\SC(=O)N(c3ccccc3Cl)C2=O)cc([N+](=O)[O-])c1O` the Potency was active: 25.1 µM.
For `COc1ccc([N+](=O)[O-])cc1-n1cccc1`, the Potency was active: 50.1 µM.
For `COc1ccc(C(=O)N2CCCCC2CCN2CCOCC2)cc1` (stereo unspecified), the Potency was “inactive”.
With `Cn1c2ccccc2c(=O)c2cc(C#CC3=CCCCC3)ccc21` the Potency was “inactive”.
